About 5,700 (2.6%) of roughly 220,000 compounds were called active. Inconclusive means that the source gave no clear call. Such entries were picked first, then a sample of the others. The call rests on the fitted dose curve; in most records, active means well fitted inhibition curve with a large enough effect; inconclusive means small, poorly fitted or top-dose-only effect; inactive means no such curve, though single readings can be large or run the other way. Where the call is inconclusive, the potency comes from a doubtful curve fit.
biological target: Lysine-specific demethylase 5B (Homo sapiens) (UniProt Q9UGL1); test: Primary screen for KDM5B Histone Demethylases FDH-coupled qHTS; details: FDH-coupled NADH fluorescence (FDH is formaldehyde dehydrogenase); activity change, negative = inhibition: at 57.7 µM (top of the series) unless noted; further: nearly all actives have a fitted effect of over 70% in size; on activity change, negative = inhibition: 0% is about no effect
Sequence of UniProt Q9UGL1 (Q9UGL1 whole entry, looked up): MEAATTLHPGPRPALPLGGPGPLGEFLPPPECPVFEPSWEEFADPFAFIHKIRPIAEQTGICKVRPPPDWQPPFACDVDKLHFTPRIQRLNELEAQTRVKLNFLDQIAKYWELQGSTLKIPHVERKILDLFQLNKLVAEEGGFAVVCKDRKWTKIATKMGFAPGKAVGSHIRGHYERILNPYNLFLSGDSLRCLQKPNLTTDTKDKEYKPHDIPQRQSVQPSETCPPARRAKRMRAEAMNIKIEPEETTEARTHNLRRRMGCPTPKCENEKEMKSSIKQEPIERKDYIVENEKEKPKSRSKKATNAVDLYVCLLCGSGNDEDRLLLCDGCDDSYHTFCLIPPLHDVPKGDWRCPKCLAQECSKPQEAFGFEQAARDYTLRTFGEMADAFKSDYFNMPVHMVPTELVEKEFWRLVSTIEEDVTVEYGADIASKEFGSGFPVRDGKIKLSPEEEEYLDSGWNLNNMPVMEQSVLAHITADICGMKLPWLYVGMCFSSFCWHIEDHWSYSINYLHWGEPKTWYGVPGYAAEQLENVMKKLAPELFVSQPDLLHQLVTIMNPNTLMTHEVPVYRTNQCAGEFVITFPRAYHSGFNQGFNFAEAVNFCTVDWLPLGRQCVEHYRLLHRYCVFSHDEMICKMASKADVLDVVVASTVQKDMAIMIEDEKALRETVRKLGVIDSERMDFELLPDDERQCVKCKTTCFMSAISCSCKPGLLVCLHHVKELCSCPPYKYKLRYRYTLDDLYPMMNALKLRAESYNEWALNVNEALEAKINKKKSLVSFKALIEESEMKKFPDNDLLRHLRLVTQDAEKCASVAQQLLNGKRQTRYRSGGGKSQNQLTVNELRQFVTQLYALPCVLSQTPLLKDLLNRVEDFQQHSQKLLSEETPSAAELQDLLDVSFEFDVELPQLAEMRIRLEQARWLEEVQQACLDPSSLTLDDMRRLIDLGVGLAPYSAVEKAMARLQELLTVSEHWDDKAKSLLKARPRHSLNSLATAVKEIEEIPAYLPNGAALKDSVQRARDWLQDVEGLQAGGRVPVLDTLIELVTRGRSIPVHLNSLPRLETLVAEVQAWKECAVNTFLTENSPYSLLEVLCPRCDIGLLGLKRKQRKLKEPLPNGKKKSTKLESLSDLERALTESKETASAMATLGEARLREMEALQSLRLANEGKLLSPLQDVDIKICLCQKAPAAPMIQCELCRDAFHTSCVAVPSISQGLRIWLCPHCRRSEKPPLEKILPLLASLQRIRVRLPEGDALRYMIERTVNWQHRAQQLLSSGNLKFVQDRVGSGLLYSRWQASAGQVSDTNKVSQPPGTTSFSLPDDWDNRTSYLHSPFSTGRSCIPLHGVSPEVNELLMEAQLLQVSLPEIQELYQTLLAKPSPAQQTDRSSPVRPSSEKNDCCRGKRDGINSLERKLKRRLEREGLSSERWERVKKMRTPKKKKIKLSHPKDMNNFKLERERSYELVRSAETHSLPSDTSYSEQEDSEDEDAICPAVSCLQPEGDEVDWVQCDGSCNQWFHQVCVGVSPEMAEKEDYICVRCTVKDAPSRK
How it was run: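 Measured: NADH fluorescence change, 30 min, RT. System: KDM5BΔAP 200 nM final, H3K4me3 peptide, α-KG, Fe(II), ascorbate, NAD⁺ plus FDH, pH 7.5 HEPES. Compounds: titrated, 10 min pre-incubation with enzyme.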
Potency means the concentration at half of the fitted maximal effect; tags describe the fitted curve by direction and shape.

Q: For `Cc1cc(OCC(=O)NCCCN2CCCC2=O)c2c(C)c(C)c(=O)oc2c1`, which Potency is on record?
A: The Potency was inconclusive: 25.1 µM [inhibitor, partial curve, poor fit].

Q: How did the Potency turn out when `Cc1ccc(C(=O)N2CCC(c3n[nH]c(=O)n3Cc3ccc(F)cc3)CC2)cc1F` was run?
A: Its Potency is “inactive”.

Q: For `COc1ccc(Cn2ccc3nc(C)c(C(=O)NCc4cccc(OC)c4)cc3c2=O)cc1`, which Potency is on record?
A: Its Potency is inconclusive: 39.8 µM [inhibitor, single point].

Q: With `Clc1ccc2nc(-c3nc(C4CCOC4)no3)cn2c1` (centres undefined) as the compound, how does the Potency read?
A: Its Potency is active: 22.4 µM.

Q: With `CCc1ccccc1NC(=O)Cn1c2ncccc2c(=O)n1-c1ccccc1` as the compound, how does the Potency read?
A: The Potency was inconclusive: 28.2 µM [inhibitor, partial curve, poor fit].

Q: With `COCc1nc(C2CCCN(C(=O)c3ccc(C)s3)C2)no1` (centres undefined) as the compound, how does the Potency read?
A: The Potency was “inactive”.

Q: `COc1cccc(S(=O)(=O)N2CCC(Cc3nncn3C)C2)c1` (centres undefined) was tested. Which Potency did it give?
A: Its Potency is “inactive”.

Q: Which Potency does the source give for `CCCOc1ccc(/C=C/C(=O)Nc2cc(C(C)(C)C)ccc2OC)cc1OC` here?
A: Its Potency is inconclusive: 28.2 µM [inhibitor, single point].

Q: Which Potency does the source give for `COc1ccc(O)cc1CN1CCC(Cc2ccc(C(=O)O)cc2)C1` (centres undefined) here?
A: Its Potency is inconclusive: 3.16 µM [inhibitor, partial curve, poor fit].

Q: `CCOc1ccc(CNC(=O)CCCc2cn(C)c3ccccc23)cc1OC` was tested. Which Potency did it give?
A: The Potency was inconclusive: 25.1 µM [inhibitor, partial curve, poor fit].

Q: Which Potency does the source give for `CCn1ccc(C(=O)NCc2cccnc2N(C)CCc2ccccn2)n1` here?
A: Its Potency is active: 28.2 µM.

Q: With `Cc1c(C)n(C)c2ccc(C(=O)NCc3cccc(F)c3)cc12` as the compound, how does the Potency read?
A: Its Potency is inconclusive: 17.8 µM [inhibitor, single point].

Q: For `Cc1cc(=O)oc2c(C)c(OC(C)C(=O)NC3CC(C)(C)NC(C)(C)C3)ccc12` (centres undefined), which Potency is on record?
A: The Potency was inconclusive: 20 µM [inhibitor, partial curve, poor fit].

Q: With `N#CC1=C(N)N2CCc3cc4c(cc3C2=CC12C(=O)Nc1ccccc12)OCCCO4` (centres undefined) as the compound, how does the Potency read?
A: Its Potency is inconclusive: 31.6 µM [inhibitor, single point].

Q: For `COC(=O)CN1CCOC(c2ccc3cc(OC)ccc3c2)C1` (centres undefined), which Potency is on record?
A: The Potency was inconclusive: 28.2 µM [inhibitor, partial curve, poor fit].

Q: Which Potency does the source give for `COc1ccc(CNC(=O)NCC2Cn3cccc3C(=O)N2Cc2ccccc2)cc1` (centres undefined) here?
A: The Potency was “inactive”.

Q: For `COc1cc2c(cc1NC(=O)COc1ccc(Cl)cc1Br)oc1ccccc12`, which activity change, negative = inhibition is on record?
A: Its activity change, negative = inhibition is inconclusive: -41.5% [inhibitor].

Q: With `CCCCCCC/C=N/NC(N)=S` as the compound, how does the Potency read?
A: The Potency was inconclusive: 35.5 µM [inhibitor, partial curve, poor fit].

Q: `O=S(Cc1ccc(Cl)cc1)Cc1c(Cl)cccc1Cl` (centres undefined) was tested. Which Potency did it give?
A: Its Potency is “inactive”.

Q: Which Potency does the source give for `Cc1cccc(-n2cnc3c(sc4nc(N5CCOCC5)c5c(c43)CCCC5)c2=O)c1` here?
A: Its Potency is inconclusive: 28.2 µM [inhibitor, partial curve, poor fit].

Q: Which Potency does the source give for `CCCCCSc1nc2sc3c(c2c(=O)n1-c1ccc(OC)cc1)CCN(C(C)=O)C3` here?
A: Its Potency is inconclusive: 8.91 µM [inhibitor, partial curve, poor fit].

Q: `O=C(CC1CCCC1)NCC1CCCCC(=O)N1` (centres undefined) was tested. Which Potency did it give?
A: Its Potency is “inactive”.

Q: `Cc1ccc(Nc2c(-c3ccsc3)nc3c(C)cccn23)cc1` was tested. Which Potency did it give?
A: The Potency was inconclusive: 31.6 µM [inhibitor, partial curve, poor fit].

Q: With `O=C(NCCc1ccccn1)c1ccc2c(c1)-c1ccccc1C2` as the compound, how does the Potency read?
A: The Potency was inconclusive: 31.6 µM [inhibitor, partial curve, poor fit].

Q: For `COC(=O)COC(=O)Cn1cc(I)c(=O)c(I)c1`, which Potency is on record?
A: The Potency was “inactive”.

Q: `CCC(C(=O)N1CCCn2nc(C(=O)Nc3ccccc3)cc2C1)n1cccn1` (centres undefined) was tested. Which Potency did it give?
A: Its Potency is inconclusive: 25.1 µM [inhibitor, partial curve, poor fit].

Q: How did the Potency turn out when `COc1cc(F)ccc1-c1nccc2c(=O)cc(N(C)C3CCOCC3)oc12` was run?
A: Its Potency is active: 39.8 µM.

Q: With `CCCCCCNC(=O)Cc1csc2nc(C)c(-c3cc(C)n(-c4ccccc4OC)n3)c(=O)n12` as the compound, how does the Potency read?
A: Its Potency is active: 28.2 µM.

Q: With `Cc1ccc(CN(C(=O)c2ccco2)c2ccc(CC(=O)N3CCOCC3)cc2)cc1` as the compound, how does the Potency read?
A: The Potency was “inactive”.

Q: For `COCCN1Cc2cccc(C(=O)Nc3ccc(S(=O)(=O)N4CCCCCC4)cc3)c2C1=O`, which Potency is on record?
A: The Potency was inconclusive: 39.8 µM [inhibitor, partial curve, poor fit].

Q: For `O=C1[C@H]2CC[C@H](CN(Cc3ccc(-n4ccnc4)cc3)C2)N1CC1CCC1`, which Potency is on record?
A: The Potency was active: 20 µM.

Q: `Cc1noc(C)c1[S+](=O)([O-])N1CCC2(Cc3ccccc3NC2=O)C1` (centres undefined) was tested. Which Potency did it give?
A: The Potency was “inactive”.

Q: Which Potency does the source give for `Cc1ccc(C2Cn3nnc(-c4noc(-c5cccs5)n4)c3CO2)cc1` (centres undefined) here?
A: Its Potency is inconclusive: 39.8 µM [inhibitor, single point].

Q: With `COc1ccc(-c2ccc3nc(-c4ccc(F)cc4F)oc3c2)c(OC)c1OC` as the compound, how does the Potency read?
A: Its Potency is “inactive”.

Q: How did the Potency turn out when `Cc1cnc2c(C(=O)N[C@H](C3CCNCC3)C3CC(O)C3)cnn2c1` (some centres undefined) was run?
A: Its Potency is active: 31.6 µM.

Q: For `CCn1ncc(Cl)c1CNC(=O)C1CCCN(S(=O)(=O)c2cnn(C)c2)C1` (centres undefined), which Potency is on record?
A: Its Potency is “inactive”.

Q: How did the Potency turn out when `Cc1ccc(OCC(=O)OC2=C(C(=O)c3ccccc3)N(C)S(=O)(=O)c3ccccc32)cc1` was run?
A: Its Potency is inconclusive: 35.5 µM [inhibitor, single point].

Q: How did the Potency turn out when `Cn1ncc(N2CCCC(CC(=O)O)C2)cc1=O` (centres undefined) was run?
A: The Potency was “inactive”.

Q: How did the Potency turn out when `Cc1oc(-c2ccc(C(=O)NCCC(C)C)cc2)nc1CN1CCc2ccccc21` was run?
A: Its Potency is inconclusive: 15.8 µM [inhibitor, partial curve, poor fit].

Q: Which Potency does the source give for `CC1CCN(CCCNCc2cccnc2)CC1` here?
A: The Potency was “inactive”.

Q: Which Potency does the source give for `O=C1CO[C@H]2CN(CCCc3ccccc3)C[C@H]2N1Cc1ccc(F)cc1` here?
A: Its Potency is inconclusive: 28.2 µM [inhibitor, single point].

Q: How did the Potency turn out when `COCCCNC(=O)c1ccc(-c2nc(CS(=O)(=O)c3ccccc3)c(C)o2)cc1` was run?
A: Its Potency is inconclusive: 25.1 µM [inhibitor, partial curve, poor fit].

Q: With `COc1ccccc1N1CCN(C(=O)C[C@@H]2O[C@H](CNC(=O)c3cccc(F)c3)[C@@H](O)[C@H]2O)CC1` as the compound, how does the Potency read?
A: Its Potency is “inactive”.

Q: Which Potency does the source give for `CC(=O)c1sc(-c2ccc(Br)cc2)nc1C` here?
A: The Potency was “inactive”.

Q: How did the Potency turn out when `CC(C)(C)C(=O)Nc1nnc(COc2ccc(Cl)cc2)s1` was run?
A: Its Potency is inconclusive: 39.8 µM [inhibitor, partial curve, poor fit].

Q: `O=C(c1cn[nH]c1)N1CCC(c2nc(CCOCC3CC3)no2)C1` (centres undefined) was tested. Which Potency did it give?
A: The Potency was “inactive”.

Q: Which Potency does the source give for `COc1ccc2c(c1)Cc1sc(NC(=O)c3cccc(C)c3)nc1-2` here?
A: Its Potency is inconclusive: 6.31 µM [inhibitor, partial curve, poor fit].

Q: For `CCc1nc(N2CCN(C(=O)CN3CCN(C)CC3)CC2)c(C#N)c2c1COC(C)(C)C2`, which Potency is on record?
A: Its Potency is inconclusive: 20 µM [inhibitor, partial curve, poor fit].

Q: Which Potency does the source give for `Cc1cc(C)c(CNC(=O)c2nc(-c3ccc(F)cc3)cc3c2ccn3C(C)C)c(=O)[nH]1` here?
A: The Potency was “inactive”.

Q: For `COCCOc1ccc2c(n1)CCN(C(=O)c1cccs1)C2`, which Potency is on record?
A: The Potency was “inactive”.

Q: `Cc1cc(C(=O)OCC(=O)N2CCC(C)CC2)c2ccccc2n1` was tested. Which Potency did it give?
A: The Potency was inconclusive: 31.6 µM [inhibitor, partial curve, poor fit].

Q: Which Potency does the source give for `C[C@@]1(O)CCN(Cc2ccc(C#N)cc2)C[C@H]1N1CCCC1` here?
A: Its Potency is inconclusive: 17.8 µM [inhibitor, single point].

Q: Which Potency does the source give for `CCOC(=O)c1cnc2nc(NCc3cccc(Br)c3)[nH]n2c1=O` here?
A: Its Potency is inconclusive: 25.1 µM [inhibitor, partial curve, poor fit].

Q: How did the Potency turn out when `CCOC(=O)N1CCN(C(=O)CN(c2cc(Cl)cc(Cl)c2)S(C)(=O)=O)CC1` was run?
A: Its Potency is “inactive”.

Q: With `CCc1ccccc1NC(=O)Cn1c(=O)n(-c2ccc(CC(=O)NCC3CCCO3)cc2)c(=O)c2ccccc21` (centres undefined) as the compound, how does the Potency read?
A: The Potency was inconclusive: 2 µM [inhibitor, full curve, poor fit].

Q: `COc1ccc(/C(C)=N/NC(=S)NCCc2ccccc2)c(O)c1` was tested. Which Potency did it give?
A: The Potency was inconclusive: 14.1 µM [inhibitor, partial curve, poor fit].

Q: `COCCNC(=O)c1ccc2c(c1)N(C)C(CC(=O)N(C)C(C)C)CO2` (centres undefined) was tested. Which Potency did it give?
A: The Potency was active: 28.2 µM.

Q: How did the Potency turn out when `Cc1cnc(N2CC3CCC(C2)N3CC(F)(F)F)s1` was run?
A: Its Potency is active: 56.2 µM.

Q: With `Cn1ncc2c(N[C@@H]3CS(=O)(=O)C[C@H]3O)nc(-c3ccncc3)nc21` as the compound, how does the Potency read?
A: Its Potency is inconclusive: 25.1 µM [inhibitor, partial curve, poor fit].

Q: With `Cc1ccccc1C(=O)Nc1ccc2nc(SCC(=O)N3CCc4ccccc43)sc2c1` as the compound, how does the Potency read?
A: Its Potency is inconclusive: 28.2 µM [inhibitor, partial curve, poor fit].

Q: How did the Potency turn out when `COc1ccc(CNC(=O)c2ccc3c(c2)N(Cc2ccc(C)cc2)CCS3)cc1` was run?
A: The Potency was inconclusive: 35.5 µM [inhibitor, partial curve, poor fit].

Q: For `CCCOc1ccc(-c2nonc2NC(=O)c2cc(OC)c(OC)c(OC)c2)cc1OCCC`, which Potency is on record?
A: The Potency was “inactive”.

Q: `COc1ncccc1-c1nccc2c(=O)cc(N(C)C3CCOCC3)oc12` was tested. Which Potency did it give?
A: The Potency was “inactive”.

Q: Which Potency does the source give for `COCCCNCc1cc(=O)oc2ccc3ccccc3c12` here?
A: The Potency was “inactive”.

Q: For `Cc1cc(C)nc(Nc2nc(C)c3cccc(C)c3n2)n1`, which Potency is on record?
A: The Potency was inconclusive: 31.6 µM [inhibitor, partial curve, poor fit].

Q: How did the Potency turn out when `CCOc1cc(C)c(Cl)cc1S(=O)(=O)N1CCCCC1CC` (centres undefined) was run?
A: Its Potency is “inactive”.

Q: `COc1ccccc1CNS(=O)(=O)c1ccc(-c2cnc(C3CC3)o2)cc1` was tested. Which Potency did it give?
A: Its Potency is inconclusive: 22.4 µM [inhibitor, partial curve, poor fit].

Q: `COc1cccc(-c2ccc(S(=O)(=O)N3CCSCC3)cc2)n1` was tested. Which Potency did it give?
A: The Potency was inconclusive: 25.1 µM [inhibitor, partial curve, poor fit].

Q: Which Potency does the source give for `O=C(Cc1c[nH]c2ccccc12)N1CCCN(c2cc(-c3ccc(Br)cc3)[nH]n2)CC1` here?
A: Its Potency is inconclusive: 8.91 µM [inhibitor, partial curve].
